We go through 42 molecules from ChEMBL document CHEMBL4888484, “Replenishing the malaria drug discovery pipeline: Screening and hit evaluation of the MMV Hit Generation Library 1 (HGL1) against asexual blood stage Plasmodium falciparum ,using a nano luciferase reporter read-out” (2022).

Among all 150,000 compounds or so, about 540 (0.36%) showed an effect of 50% or more. The list shows a part of the results.

The subject of the assay is Plasmodium falciparum. Put plainly: Primary screen in NF54 nanoGlo assay, in single point, at 2uM, 72h; a lower Z score goes with more inhibition. In kind it is functional, Erythrocyte. The note with it: timepoint 72 hour.
The term % Inhibition denotes the change of the read-out against control, counted positive when it falls. Regarding `Cc1cc(CNC(=O)c2sc(-c3cccs3)nc2C)ncn1`, the “% Inhibition” value is -10% and the Z score amounted to 2.02.
`CCc1nnc2nc(N3CCN(C(=O)Cc4cccs4)CC3)cc(C)n12`: the “% Inhibition” value is -11% and the Z score was determined as 2.02.
On the same counts, the results for `O=C(c1cccnc1)N1CCO[C@H](c2ccccc2)C1` are 2% and -0.35.
On the same counts, the results for `CC[C@H](C)Oc1cccc(CN2CCC3(CC2)CN(C)CCN3C)c1` are -11% and 1.51.
On the same counts, the results for `Cc1nc(C)n(C2CN(S(=O)(=O)c3ccc4scnc4c3)C2)n1` are 0% and -0.06.
Consider `CNc1cc(C(=O)N(Cc2noc(C)n2)C(C)C)ccn1`, for which the “% Inhibition” value is recorded as -22% and the Z score was found to be 2.23.
On the same counts, the results for `CCC(C)(C)C(=O)NC1CCN(C2=NS(=O)(=O)C(c3ccc(C(C)C)cc3)=C2C)CC1` are -22% and 4.39.
On the same counts, the results for `O=C(c1ncnc2ccsc12)N1CCCC[C@@]12CCOC2` are -9% and 1.23.
On the same counts, the results for `O=C([C@H]1CCS(=O)(=O)C1)N(Cc1ccoc1)C1CCCCC1` are -7% and 0.88.
`Nc1c2c(-c3cccc(Cl)c3)nc(NCc3ccccc3)nc2nn1-c1ccccc1`: the “% Inhibition” value is on record as 3% and the Z score is on record as -0.39.
On the same counts, the results for `CN(C(=O)c1cc2ccccc2[nH]1)[C@@H]1CCC[C@H]1O` are 2% and -0.18.
For `COc1ccc(-c2noc(CN3c4ccccc4CC[C@@H]3C)n2)cc1OC`, in that order: -3% and 0.33.
On the same counts, the results for `CCCS(=O)(=O)c1c(S(=O)(=O)CCC)c2c3ccccc3ccn2c1C(=O)c1ccc(C)cc1` are -11% and 1.01.
On to `CC(=O)Nc1ccc(-c2ccccc2-c2nnc(C)o2)cc1`, for which the “% Inhibition” value is on record as -8% and the Z score is listed as 0.9.
On the same counts, the results for `Cc1nc(NC2CCN(Cc3ccccc3)CC2)[nH]c(=O)c1C` are -26% and 2.29.
On the same counts, the results for `COc1cc(OC)cc(C(=O)N/C(=N/c2ccc(C)cc2)NC[C@H]2CCCO2)c1` are 4% and -0.77.
For `CCn1ncc(-c2noc3nc(C4CC4)cc(C(=O)N[C@@H](C)CN4CCCCC4)c23)c1C`, in that order: 5% and -0.77.
Regarding `O=C(Cc1cccnc1)N1CCc2c(c(C(=O)N3CCC(O)CC3)nn2CCCc2ccccc2)C1`, the “% Inhibition” value is listed as -12% and the Z score is reported as 1.58.
On the same counts, the results for `O=C(O)[C@H]1CCN(C(=O)c2ccc(Oc3ccncc3)c(Cl)c2)C1` are -1% and 0.26.
On the same counts, the results for `Cc1ccc(S(=O)(=O)c2cn(CC(=O)Nc3cccc(C)c3C)c3nc(C)ccc3c2=O)cc1` are -14% and 1.4.
On the same counts, the results for `Nc1cc2c(cc1NC(=O)c1ccc3c(c1)CCNCC3)OCO2` are 18% and -2.5.
Regarding `CCCNC(=O)CNC(=O)NC1CC1C1CCCCC1` (centres undefined), the “% Inhibition” value turned out to be 1% and the Z score was -0.15.
For `Cc1nnc(CC(=O)N2CCCCC[C@H]2c2noc(C(C)C)n2)o1`, in that order: -4% and 0.55.
On the same counts, the results for `CC(C)N1CCC(Nc2ccc(C3CC3)c(F)c2)CC1` are -15% and 1.92.
On the same counts, the results for `CCC1CN(C(=O)c2ccccc2OC2CC2)CC(CC)O1` (centres undefined) are 10% and -2.04.
As to `Cc1cc(CN(C)C(=O)c2ncn(C(C)(C)C)n2)no1`, the “% Inhibition” value is -15% and the Z score worked out at 2.9.
With `CN(CC(=O)Nc1sc2c(c1C(N)=O)CCCC2)Cc1cnn(C)c1`, the “% Inhibition” value is -5% and the Z score was determined as 0.76.
For the molecule `CC(C)C(=O)N(Cc1cc(-c2ccccc2)on1)C1CC1`, the “% Inhibition” value was -13% and the Z score was 1.55.
For `COc1ccc(C(=O)N2CCC(n3cc(-c4nc(C)no4)nn3)CC2)c(OC)c1`, the “% Inhibition” value was -2% and the Z score is on record as 0.24.
On the same counts, the results for `C[C@@H](COc1ccccc1)NC(=O)Cc1cccs1` are -9% and 1.31.
With `Cc1cc(CNC[C@H](C)c2c(C)noc2C)c2c(n1)CCCC2`, the “% Inhibition” value is given as -1% and the Z score turned out to be 0.2.
On to `Cc1nc(NC(=O)C(C)(C)S(=O)(=O)C2CC2)cc(C2CC2)n1`, for which the “% Inhibition” value worked out at 14% and the Z score was -1.64.
Take `CC[C@H](C)NC(=O)c1cccc(C)c1C`: the “% Inhibition” value is -7% and the Z score is reported as 0.97.
On the same counts, the results for `CCOC(=O)N1CCC(n2cnc3ccncc3c2=O)CC1` are -14% and 2.06.
On the same counts, the results for `CC(C)(CN1CCCN(CC(=O)N2CCCC2)CC1)c1ccccc1` are -11% and 1.42.
For `COC(=O)c1c(C)nn(Cc2cccc3cccnc23)c1C`, the “% Inhibition” value was -12% and the Z score came to 1.08.
On the same counts, the results for `O=C(c1scnc1C(F)F)N1CCC[C@@H]2O[C@H](c3ccccc3)C[C@@H]21` are -9% and 1.28.
On the same counts, the results for `CCOC(=O)N1CCC([C@H](C)NC(=O)c2oc(CC3CC3)nc2C)CC1` are -7% and 1.03.
Regarding `Cc1cc(-c2cccc(F)c2)nnc1NC[C@H]1CCCS(=O)(=O)C1`, the “% Inhibition” value is recorded as -2% and the Z score turned out to be 0.21.
On the same counts, the results for `CC(C)=CCC/C(C)=C/CNC(=O)CCn1ccc(=O)[nH]c1=O` are 2% and -0.4.
On the same counts, the results for `COc1ccc([C@H](C(=O)O)N(C)Cc2ccnc3ccccc23)c(OC)c1` are -16% and 2.23.
On the same counts, the results for `CC1(NC(=O)NC2CCCc3ccc(F)cc32)CCOC1` (centres undefined) are -8% and 1.09.
